Test results as given in the RNAGym collection of RNA variant scans (doi:10.7554/elife.90254).
The source gives no read counts; variants with many changes may rest on few reads.

B1: OR4K15 (parent)
chain: GUUAACGGUCAUAGGCCAUGGAAACUAGGAGCACCAUUUCGCUGCCAGUGAAGAAAUGAACAAAGAAAAUCUGGGCCAGGCAGGCAUCAAAAGAAAUAGUCUUGCGCUCAACCAGAAAGUCUGUAAUCAUUUUAAGGGUA

Variants of: B1
Test: self-cleavage, relative activity (ratio to wild type); higher = more cleavage; in vitro, sequencing; the parent is a self-cleaving ribozyme
For A11U U19A A98G A126G, the self-cleavage was 0.04. For U26C A33G U37C A47U A68G U122C U131C, the self-cleavage was 0.14. Work on A24G A52U A69G yielded a self-cleavage of 0.26. A23G A33G A59U G74U gave a self-cleavage of 0.17. In the case of A33G A91G A94U A111U, the self-cleavage is reported as 0.06. U9C A13U C46U A47G A55G A69G U127C gave a self-cleavage of 0.73. With A91G A116G A118G the self-cleavage was 0.13. A54G A59G A96G U120A showed a self-cleavage of 2.53. Variant G73A A78G U120C has a self-cleavage of 0.07. Variant U26C A64G U102C has a self-cleavage of 1.07. Variant A55G A96G U102C A117G U122C has a self-cleavage of 1.64. With A33G A116G A129G U132C the self-cleavage was 0.15. A11G C42A U70A gave a self-cleavage of 0.4. A18U A64G A69G showed a self-cleavage of 1.49. U19C A63G U132C gave a self-cleavage of 1.64. Variant A118G U122C U131C has a self-cleavage of 0.86. Work on A52G A63G A82G yielded a self-cleavage of 0.68. U2C A52G U72C U87C A118G showed a self-cleavage of 0.02. Variant A55G A66G A110G has a self-cleavage of 0.1. With U39A A52G U132C the self-cleavage was 1.6. With A33G A78G A117U the self-cleavage was 0.07. A33G A36U U37A A82C A94G U102A U108G gave a self-cleavage of 0.01. Variant U37C A98U A111G has a self-cleavage of 0.04. In the case of U2A A5G A110G, the self-cleavage is reported as 0.18. Variant U26C A60G A114U has a self-cleavage of 0.03. In the case of G119C U120C A125U, the self-cleavage is reported as 1.2. With A23G A82G U87C A91G U102C the self-cleavage was 0.76. U26C A66G A91U showed a self-cleavage of 1.02. For A22G A24G A36G, the self-cleavage was 2.22. Variant A13U C61U A67U A89G U131C has a self-cleavage of 1.36. Work on A22G A23U A47G A78G A118G yielded a self-cleavage of 0.14. Variant C6U A23G A24C A54G A62U A66U has a self-cleavage of 0.64. Work on A62G A90G A94G A111G yielded a self-cleavage of 0.01. For C6A A86G U108C, the self-cleavage was 0.01. For U72A A90U U108C G123A, the self-cleavage was 0.01. For G29U A56G A62G A98C A110C, the self-cleavage was 0.19. Work on A18G A60U A90G A94G yielded a self-cleavage of 1.48. With A5G A51G A86G A89G the self-cleavage was 0.51. Variant A13G A24U A33G U43A has a self-cleavage of 1.08. In the case of A33G A55G A116G, the self-cleavage is reported as 0.53. A51U A59G A118G A129G U130C U132A showed a self-cleavage of 0.53. A22G A47G A78U A111G gave a self-cleavage of 0.05. In the case of G41A A55G A63G, the self-cleavage is reported as 2.1. Work on A52G A78G A86G A118G yielded a self-cleavage of 0.11. For A24C A33U A110G, the self-cleavage was 0.1. For U39C A51G A82G A126G U139A, the self-cleavage was 0.33. U39C A69G A116U A118G gave a self-cleavage of 0.21. With A11G A24G U37C A95G the self-cleavage was 1.72. Variant U2C U9C A11G U49C A68G has a self-cleavage of 0.9. Work on A5C U12C A140C yielded a self-cleavage of 1.49. Work on U9C A51G A62G A95G yielded a self-cleavage of 1.08. For C45A A114U A126C, the self-cleavage was 0.01. A51G A67G A89G showed a self-cleavage of 1.49. With U19C A30G A117U U122C the self-cleavage was 0.49. A13G U38A A90G A95G U139C showed a self-cleavage of 1.64. Variant A23G A33G A82G U127G has a self-cleavage of 0.26. In the case of A92C A111U A116G, the self-cleavage is reported as 0.04. In the case of A24G G84U A95G U131C, the self-cleavage is reported as 0.96. A52U A56G A86G U100C A110G showed a self-cleavage of 0.19. With A24G U37C A78C the self-cleavage was 0.41. In the case of A23G A82G A111G, the self-cleavage is reported as 0.08. U2C A63G A91U gave a self-cleavage of 0.76. U2G U3C U49C C71A gave a self-cleavage of 0.9. A11G A22G A63G gave a self-cleavage of 1.59. With U49A A92U A126U the self-cleavage was 0.81. Variant U19C A78U U87C has a self-cleavage of 0.4. Work on A4G A66G U70C A92G yielded a self-cleavage of 0.69. For A30G U49A A52G, the self-cleavage was 0.58. In the case of A11U A68G C88A U122C U130C, the self-cleavage is reported as 2.39. G7A C35A A114G gave a self-cleavage of 0.36. A54G A90G U103G A111G showed a self-cleavage of 0.01. With A47G U49C U130C the self-cleavage was 0.51. U37C A66G A116G A126G gave a self-cleavage of 0.57. With A23G A30G U57C the self-cleavage was 1.21. Work on A23G A51G A55G A60G A111G yielded a self-cleavage of 0.05. With U19C U122C A129G the self-cleavage was 1.5. In the case of A5U A54U U108C, the self-cleavage is reported as 0.06. Variant A30G A64G G137U has a self-cleavage of 0.97. For A68G U70G U108C U127A, the self-cleavage was 0.06. G7A A23G C81U U102C A135U showed a self-cleavage of 0.72. Work on A11G A62U U124C yielded a self-cleavage of 0.92. For A22G A62G U102C U139C, the self-cleavage was 0.87. With U2C U9C A110G the self-cleavage was 0.38. A36G U39C U100C gave a self-cleavage of 0.78. U38C A111G U122C G137A showed a self-cleavage of 0.01. For A11G A52G U122A, the self-cleavage was 0.37. In the case of A69U U70C A86U A98G A116G G119U U131C, the self-cleavage is reported as 1.66. For A24G A54G A82U A118G, the self-cleavage was 0.02. A59U U103C A116G U127C gave a self-cleavage of 0.11. For U9C A126G U132C, the self-cleavage was 0.79. For A22G U57C A62G, the self-cleavage was 0.83. Work on A51G U57C A64G A82G yielded a self-cleavage of 0.37. U39A A47G A60G A67G showed a self-cleavage of 1.05. Variant A24U A64G A117U A134G A135G has a self-cleavage of 0.68. Variant U43A U100C U108C U130C U131C has a self-cleavage of 0. With A24G U49C A94U the self-cleavage was 2.24. U39C A62G A68G A116G showed a self-cleavage of 1.13. A67G U72C U132A gave a self-cleavage of 0.18. Work on U39A U57C A118U U130C yielded a self-cleavage of 0.24. Variant A5G U37C A95G U108A A118G has a self-cleavage of 0.03. With A30C A66G A92U A94G U108A the self-cleavage was 0. With U2C U39A A94G U139C the self-cleavage was 0.75. For A30G A47G A116G, the self-cleavage was 0.53. With U9C A56G C81G A98G A117G the self-cleavage was 0. Variant U9C A23G A47G A66U has a self-cleavage of 0.65. With A23U A36U U37C U100C U130C the self-cleavage was 1.52. G1C A51U U87C A89U C128A U132C showed a self-cleavage of 1.17. Variant A64G U100C A114U U122C has a self-cleavage of 0.23. With A23U A118G U132C the self-cleavage was 0.76. For A27G U39A A98U, the self-cleavage was 1.63. In the case of C42A A67G U131C, the self-cleavage is reported as 1.53. Work on U2C A24G A47G U127A yielded a self-cleavage of 1.12. A4G U43A A63G G136A gave a self-cleavage of 2.14. U2C A5G A111G gave a self-cleavage of 0.08. Variant U9C A23G U70A has a self-cleavage of 2.37. A52G A110G A116G gave a self-cleavage of 0.03. A69G A89G A96G gave a self-cleavage of 0.67. Work on U37C A68G A126G yielded a self-cleavage of 0.98. Work on A22G A33G A52U A111C A116G U133G yielded a self-cleavage of 0.01. Variant U43A A69G U108A has a self-cleavage of 0.04. A11G A18U A90G A126G showed a self-cleavage of 1.31. C42A A89G C128A A134G U139C showed a self-cleavage of 0.27. For U19C A52G A110G, the self-cleavage was 0.05. With A11U U87C C113U U124C the self-cleavage was 0.01. Work on A5G A51U A116G yielded a self-cleavage of 0.11. U9C U38C A59G A114G gave a self-cleavage of 0.55. A23U U37C A59G A60G A111U A118G gave a self-cleavage of 0.03. A4G A33G A52G U132C gave a self-cleavage of 0.71. With A51U U102A A118G the self-cleavage was 0.4. Work on A33G A55G A66G A91U yielded a self-cleavage of 1.35. Work on U37C G123A U130A yielded a self-cleavage of 0.34. A18G A24U U72C A117G U120C gave a self-cleavage of 0.2. For A24G A27G G58A A64G U87C A96U U127A, the self-cleavage was 1.09. With G21A A92G U120C the self-cleavage was 1.34. With A23G U103A A129G the self-cleavage was 0.39. In the case of U37C A90G U100A A126U, the self-cleavage is reported as 0.31. C25U U43G A140G gave a self-cleavage of 2.42. A69U U103G C121U gave a self-cleavage of 0.02. A56G A64G U124C showed a self-cleavage of 0.84. A33G A68G A95G gave a self-cleavage of 0.77. Work on U19G G50A U132A yielded a self-cleavage of 0.38. In the case of A82G A86G U100C U103C A129G, the self-cleavage is reported as 1.38. Variant U43A A62U A98U has a self-cleavage of 1.26. Variant C17U A94U A98U has a self-cleavage of 2.1. Variant G7U A96G C121U U127C has a self-cleavage of 0.9. Work on U2A U57A U87G yielded a self-cleavage of 0.36. Work on A51G A59G A62U U70C yielded a self-cleavage of 0.82. For U26C U43C A96G, the self-cleavage was 1.12. In the case of U39C U108C A111G A118G, the self-cleavage is reported as 0.01. Work on U43A A67U A92G yielded a self-cleavage of 2.25. A22G G31A A51G gave a self-cleavage of 1.89. Work on U9C A52U A63G A135G yielded a self-cleavage of 1.95. For A33U C42U A60G A91G A94G, the self-cleavage was 0.5. In the case of A5G A11G U43C A52G A118G, the self-cleavage is reported as 1.25. U2C A18G U39C U100A gave a self-cleavage of 1.35. A96G A98G A118G A140G gave a self-cleavage of 0.86. In the case of U38A A52G A60G A82U A94G A96G A117G, the self-cleavage is reported as 0.21. Work on A55U A111G A118U yielded a self-cleavage of 0. With A51G A68U U124C the self-cleavage was 1.3. In the case of C45A A52G A94G A116G, the self-cleavage is reported as 0.91. With A18G U39A A68G A117G the self-cleavage was 1.78. A11G U43C A64G A91G U131C showed a self-cleavage of 0.53. A13U U19C A89G A111G showed a self-cleavage of 0.03. A24G A52G A54G gave a self-cleavage of 1. With A55G U57C A59G U72C the self-cleavage was 0.23. Work on U39C A68G A89G yielded a self-cleavage of 1.51. Variant A24G A62U A116G has a self-cleavage of 0.76.
